# Some of the results follow.
# B1: B1567 (Bifidobacterium sp) (protein)
# chain: MKFTTAKKAVALTGAVAMLVSVAACGSDSGKSSQPAQDSDVKEITVWAWEPSLTQVAKDFEKETGIKVDLKNVGTNTKEYTQLDNAIEAGSGAPDVAQVEYYAVPQYAIKGNLLDITDKTSGYKDFYTPGPWASVQFAGKVYGLPMDSGPMAFFYNKEVFDKAGVDAEQIKTWDQYYDAAKKIHALGDNYYITSDTGDAGFFDSMTWLAGAKPFQTSSDGSEVTVNLTEDKGVKTFTDFWQKLLDEGLLDTKTAGWSEDWFKGMVDGTIASLFTGAWMPANLANSAADGAGKWRVTQMPTADGSTTNSENGGSSLAVLASTKKADAAYQFIEYANHGAGVATRVAGGAFPADKASLEKDSFKNATTVKNADGQDVDYFGGQKYNEVLAQAAENVSSGYQFLPFEVKARTIFGDYFGKSYTGDQKLSDGVAAWQKALQDYGKDQGFTVK
# How the values were obtained:
# Assay in all cases: glycan array binding signal (z-score within array); higher = stronger binding
# Conditions in all cases: glycan notation: IUPAC condensed, linker removed
# Gal(b1-4)Glc = biological target: Gal(b1-4)Glc
# Summary of the method: (§1)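 Negative Z-scores can be read as non-binding. The Z-score is calculated within each array and then averaged across arrays of one protein sequence at different concentrations or buffers and across linkers. Arrays, 3228 in all, were curated from the Consortium for Functional Glycomics database and kept only where the protein sequence was available.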
# Gal(b1-4)Glc6S = biological target: Gal(b1-4)Glc6S
# Summary of the method: as §1
# Gal(b1-4)GlcNAc = biological target: Gal(b1-4)GlcNAc
# Summary of the method: as §1
# [1] = biological target: Gal(b1-4)GlcNAc(a1-6)Gal(b1-4)GlcNAc
# Summary of the method: as §1
# Gal(b1-4)GlcNAc(b1-2)Man = biological target: Gal(b1-4)GlcNAc(b1-2)Man
# Summary of the method: as §1
# [2] = biological target: Gal(b1-4)GlcNAc(b1-2)Man(a1-3)Man(b1-4)GlcNAc(b1-4)GlcNAc
# Summary of the method: as §1
# [3] = biological target: Gal(b1-4)GlcNAc(b1-2)Man(a1-3)[Gal(b1-4)GlcNAc(b1-2)Man(a1-6)]Man(b1-4)GlcNAc(b1-4)GlcNAc
# Summary of the method: as §1
# [4] = biological target: Gal(b1-4)GlcNAc(b1-2)Man(a1-3)[Gal(b1-4)GlcNAc(b1-2)Man(a1-6)]Man(b1-4)GlcNAc(b1-4)[Fuc(a1-6)]GlcNAc
# Summary of the method: as §1
# [5] = biological target: Gal(b1-4)GlcNAc(b1-2)Man(a1-3)[Gal(b1-4)GlcNAc(b1-2)Man(a1-6)][Gal(b1-4)GlcNAc(b1-4)]Man(b1-4)GlcNAc(b1-4)[Fuc(a1-6)]GlcNAc
# Summary of the method: as §1
# [6] = biological target: Gal(b1-4)GlcNAc(b1-2)Man(a1-3)[Gal(b1-4)GlcNAc(b1-2)Man(a1-6)][GlcNAc(b1-4)]Man(b1-4)GlcNAc(b1-4)[Fuc(a1-6)]GlcNAc
# Summary of the method: as §1
# [7] = biological target: Gal(b1-4)GlcNAc(b1-2)Man(a1-3)[GlcNAc(b1-2)Man(a1-6)]Man(b1-4)GlcNAc(b1-4)GlcNAc
# Summary of the method: as §1
# [8] = biological target: Gal(b1-4)GlcNAc(b1-2)Man(a1-3)[GlcNAc(b1-4)][Gal(b1-4)GlcNAc(b1-2)Man(a1-6)]Man(b1-4)GlcNAc(b1-4)GlcNAc
# Summary of the method: as §1
# [9] = biological target: Gal(b1-4)GlcNAc(b1-2)Man(a1-3)[Man(a1-6)]Man(b1-4)GlcNAc(b1-4)GlcNAc
# Summary of the method: as §1
# [10] = biological target: Gal(b1-4)GlcNAc(b1-2)Man(a1-6)Man(b1-4)GlcNAc(b1-4)GlcNAc
# Summary of the method: as §1
# [11] = biological target: Gal(b1-4)GlcNAc(b1-2)Man(a1-6)[GlcNAc(b1-2)Man(a1-3)]Man(b1-4)GlcNAc(b1-4)GlcNAc
# Summary of the method: as §1
# [12] = biological target: Gal(b1-4)GlcNAc(b1-2)Man(a1-6)[Man(a1-3)]Man(b1-4)GlcNAc(b1-4)GlcNAc
# Summary of the method: as §1
# [13] = biological target: Gal(b1-4)GlcNAc(b1-2)[Gal(b1-4)GlcNAc(b1-4)]Man(a1-3)[Gal(b1-4)GlcNAc(b1-2)Man(a1-6)]Man(b1-4)GlcNAc(b1-4)GlcNAc
# Summary of the method: as §1
# [14] = biological target: Gal(b1-4)GlcNAc(b1-2)[Gal(b1-4)GlcNAc(b1-4)]Man(a1-3)[Gal(b1-4)GlcNAc(b1-2)[Gal(b1-4)GlcNAc(b1-6)]Man(a1-6)]Man(b1-4)GlcNAc(b1-4)GlcNAc
# Summary of the method: as §1
# [15] = biological target: Gal(b1-4)GlcNAc(b1-2)[Gal(b1-4)GlcNAc(b1-4)]Man(a1-3)[GlcNAc(b1-4)][Gal(b1-4)GlcNAc(b1-2)Man(a1-6)]Man(b1-4)GlcNAc(b1-4)GlcNAc
# Summary of the method: as §1
# [16] = biological target: Gal(b1-4)GlcNAc(b1-2)[Gal(b1-4)GlcNAc(b1-4)]Man(a1-3)[GlcNAc(b1-4)][Gal(b1-4)GlcNAc(b1-2)[Gal(b1-4)GlcNAc(b1-6)]Man(a1-6)]Man(b1-4)GlcNAc(b1-4)GlcNAc
# Summary of the method: as §1
# [17] = biological target: Gal(b1-4)GlcNAc(b1-2)[Gal(b1-4)GlcNAc(b1-6)]Man(a1-6)[Gal(b1-4)GlcNAc(b1-2)Man(a1-3)]Man(b1-4)GlcNAc(b1-4)GlcNAc
# Summary of the method: as §1
# [18] = biological target: Gal(b1-4)GlcNAc(b1-2)[Gal(b1-4)GlcNAc(b1-6)]Man(a1-6)[Gal(b1-4)GlcNAc(b1-2)Man(a1-3)]Man(b1-4)GlcNAc(b1-4)[Fuc(a1-6)]GlcNAc
# Summary of the method: as §1
# [19] = biological target: Gal(b1-4)GlcNAc(b1-2)[Gal(b1-4)GlcNAc(b1-6)]Man(a1-6)[GlcNAc(b1-4)][Gal(b1-4)GlcNAc(b1-2)Man(a1-3)]Man(b1-4)GlcNAc(b1-4)GlcNAc
# Summary of the method: as §1
# [20] = biological target: Gal(b1-4)GlcNAc(b1-2)[Gal(b1-4)GlcNAc(b1-6)]Man(a1-6)[GlcNAc(b1-4)][Gal(b1-4)GlcNAc(b1-2)[Gal(b1-4)GlcNAc(b1-4)]Man(a1-3)]Man(b1-4)GlcNAc(b1-4)[Fuc(a1-6)]GlcNAc
# Summary of the method: as §1
# [21] = biological target: Gal(b1-4)GlcNAc(b1-3)Gal(b1-3)GalNAc
# Summary of the method: as §1
# [22] = biological target: Gal(b1-4)GlcNAc(b1-3)Gal(b1-3)GlcNAc
# Summary of the method: as §1
# [23] = biological target: Gal(b1-4)GlcNAc(b1-3)Gal(b1-4)Glc
# Summary of the method: as §1
# [24] = biological target: Gal(b1-4)GlcNAc(b1-3)Gal(b1-4)GlcNAc
# Summary of the method: as §1
# [25] = biological target: Gal(b1-4)GlcNAc(b1-3)Gal(b1-4)GlcNAc(b1-2)Man(a1-3)[Gal(b1-4)GlcNAc(b1-3)Gal(b1-4)GlcNAc(b1-2)Man(a1-6)]Man(b1-4)GlcNAc(b1-4)GlcNAc
# Summary of the method: as §1
# [26] = biological target: Gal(b1-4)GlcNAc(b1-3)Gal(b1-4)GlcNAc(b1-2)Man(a1-3)[Gal(b1-4)GlcNAc(b1-3)Gal(b1-4)GlcNAc(b1-2)Man(a1-6)]Man(b1-4)GlcNAc(b1-4)[Fuc(a1-6)]GlcNAc
# Summary of the method: as §1
# [27] = biological target: Gal(b1-4)GlcNAc(b1-3)Gal(b1-4)GlcNAc(b1-2)[Gal(b1-4)GlcNAc(b1-3)Gal(b1-4)GlcNAc(b1-6)]Man(a1-6)[Gal(b1-4)GlcNAc(b1-3)Gal(b1-4)GlcNAc(b1-2)Man(a1-3)]Man(b1-4)GlcNAc(b1-4)GlcNAc
# Summary of the method: as §1
# [28] = biological target: Gal(b1-4)GlcNAc(b1-3)Gal(b1-4)GlcNAc(b1-2)[Gal(b1-4)GlcNAc(b1-3)Gal(b1-4)GlcNAc(b1-6)]Man(a1-6)[Gal(b1-4)GlcNAc(b1-3)Gal(b1-4)GlcNAc(b1-2)Man(a1-3)]Man(b1-4)GlcNAc(b1-4)[Fuc(a1-6)]GlcNAc
# Summary of the method: as §1
# [29] = biological target: Gal(b1-4)GlcNAc(b1-3)Gal(b1-4)GlcNAc(b1-3)Gal(b1-4)GlcNAc
# Summary of the method: as §1
# [30] = biological target: Gal(b1-4)GlcNAc(b1-3)Gal(b1-4)GlcNAc(b1-3)Gal(b1-4)GlcNAc(b1-2)Man(a1-3)[Gal(b1-4)GlcNAc(b1-3)Gal(b1-4)GlcNAc(b1-3)Gal(b1-4)GlcNAc(b1-2)Man(a1-6)]Man(b1-4)GlcNAc(b1-4)GlcNAc
# Summary of the method: as §1
# [31] = biological target: Gal(b1-4)GlcNAc(b1-3)Gal(b1-4)GlcNAc(b1-3)Gal(b1-4)GlcNAc(b1-2)Man(a1-3)[Gal(b1-4)GlcNAc(b1-3)Gal(b1-4)GlcNAc(b1-3)Gal(b1-4)GlcNAc(b1-2)Man(a1-6)]Man(b1-4)GlcNAc(b1-4)[Fuc(a1-6)]GlcNAc
# Summary of the method: as §1
# [32] = biological target: Gal(b1-4)GlcNAc(b1-3)Gal(b1-4)GlcNAc(b1-3)Gal(b1-4)GlcNAc(b1-2)[Gal(b1-4)GlcNAc(b1-3)Gal(b1-4)GlcNAc(b1-3)Gal(b1-4)GlcNAc(b1-6)]Man(a1-6)[Gal(b1-4)GlcNAc(b1-3)Gal(b1-4)GlcNAc(b1-3)Gal(b1-4)GlcNAc(b1-2)Man(a1-3)]Man(b1-4)GlcNAc(b1-4)[Fuc(a1-6)]GlcNAc
# Summary of the method: as §1
# [33] = biological target: Gal(b1-4)GlcNAc(b1-3)Gal(b1-4)GlcNAc(b1-3)Gal(b1-4)GlcNAc(b1-3)Gal(b1-4)GlcNAc(b1-2)Man(a1-3)[Gal(b1-4)GlcNAc(b1-3)Gal(b1-4)GlcNAc(b1-3)Gal(b1-4)GlcNAc(b1-3)Gal(b1-4)GlcNAc(b1-2)Man(a1-6)]Man(b1-4)GlcNAc(b1-4)GlcNAc
# Summary of the method: as §1
binder,measurement,setting,value
B1,glycan array binding signal (z-score),Gal(b1-4)Glc,-0.076
same,glycan array binding signal (z-score),Gal(b1-4)Glc6S,-0.091
same,glycan array binding signal (z-score),Gal(b1-4)GlcNAc,0.181
same,glycan array binding signal (z-score),[1],-0.125
same,glycan array binding signal (z-score),Gal(b1-4)GlcNAc(b1-2)Man,-0.12
same,glycan array binding signal (z-score),[2],-0.116
same,glycan array binding signal (z-score),[3],-0.117
same,glycan array binding signal (z-score),[4],-0.032
same,glycan array binding signal (z-score),[5],-0.126
same,glycan array binding signal (z-score),[6],-0.165
same,glycan array binding signal (z-score),[7],-0.051
same,glycan array binding signal (z-score),[8],-0.16
same,glycan array binding signal (z-score),[9],-0.014
same,glycan array binding signal (z-score),[10],-0.101
same,glycan array binding signal (z-score),[11],-0.103
same,glycan array binding signal (z-score),[12],-0.117
same,glycan array binding signal (z-score),[13],-0.095
same,glycan array binding signal (z-score),[14],-0.163
same,glycan array binding signal (z-score),[15],-0.031
same,glycan array binding signal (z-score),[16],-0.127
same,glycan array binding signal (z-score),[17],-0.083
same,glycan array binding signal (z-score),[18],-0.102
same,glycan array binding signal (z-score),[19],-0.145
same,glycan array binding signal (z-score),[20],-0.128
same,glycan array binding signal (z-score),[21],-0.08
same,glycan array binding signal (z-score),[22],-0.144
same,glycan array binding signal (z-score),[23],14.9
same,glycan array binding signal (z-score),[24],0.588
same,glycan array binding signal (z-score),[25],0.068
same,glycan array binding signal (z-score),[26],0.102
same,glycan array binding signal (z-score),[27],-0.035
same,glycan array binding signal (z-score),[28],0.121
same,glycan array binding signal (z-score),[29],1.4
same,glycan array binding signal (z-score),[30],0.282
same,glycan array binding signal (z-score),[31],0.333
same,glycan array binding signal (z-score),[32],0.271
same,glycan array binding signal (z-score),[33],0.021
